Experimental findings from a collection of fitness landscapes (doi:10.1126/science.1257360) are described below.

B1: PhoQ; a variant is named by its letters at X, in order, P23837 (parent)
chain: MKKLLRLFFPLSLRVRFLLATAAVVLVLSLAYGMVALIGYSVSFDKTTFRLLRGESNLFYTLAKWENNKLHVELPENIDKQSPTMTLIYDENGQLLWAQRDVPWLMKMIQPDWLKSNGFHEIEADVNDTSLLLSGDHSIQQQLQEVREDDDDAEMTHSVAVNVYPATSRMPKLTIVVVDTIPVELKSSYMVWSWFIYVLSANLLLVIPLLWVAAWWSLRPIEALAKEVRELEEHNRELLNPATTRELTSLVRNLNRLLKSERERYDKYRTTLTDLTHSLKTPLXXLQXXLRSLRSEKMSVSDAEPVMLEQISRISQQIGYYLHRASMRGGTLLSRELHPVAPLLDNLTSALNKVYQRKGVNISLDISPEISFVGEQNDFVEVMGNVLDNACKYCLEFVEISARQTDEHLYIVVEDDGPGIPLSKREVIFDRGQRVDTLRPGQGVGLAVAREITEQYEGKIVAGESMLGGARMEVIFGRQHSAPKDE

This is one part of the list.

The variants in the test derive from B1. As to the kind of experiment: enrichment ratio after two sorts for PhoP signalling (ratio (wild type AVST 3.29)); higher = more functional. The settings on record: with PhoP (E. coli).
With GYQY, the enrichment ratio is no more than 0.25.

Regarding LDII, the enrichment ratio was no more than 0.25.

In the case of NDDR, the enrichment ratio was no more than 0.25.

Turning to LIHQ, the enrichment ratio was no more than 0.25.

As to RVFG, the enrichment ratio is no more than 0.25.

As to YARI, the enrichment ratio is no more than 0.25.

For KDLT, the enrichment ratio was no more than 0.25.

For LLKM, the enrichment ratio is no more than 0.25.

Regarding DRAI, the enrichment ratio was found to be 0.276.

In the case of FVMP, the enrichment ratio was no more than 0.25.

With YFQY, the enrichment ratio is no more than 0.25.

Consider HLWM, for which the enrichment ratio was no more than 0.25.

On to FNVM, for which the enrichment ratio turned out to be 4.22.

In the case of NETI, the enrichment ratio was no more than 0.25.

Turning to LTGW, the enrichment ratio is no more than 0.25.

Take IWFN: the enrichment ratio is no more than 0.25.

On to GYAV, for which the enrichment ratio was no more than 0.25.

Turning to IKNV, the enrichment ratio is no more than 0.25.

For MVGK, the enrichment ratio was no more than 0.25.

Regarding TKPP, the enrichment ratio is no more than 0.25.

With QKCH, the enrichment ratio was no more than 0.25.

As for IEWS, the enrichment ratio is no more than 0.25.

As to GGKV, the enrichment ratio was no more than 0.25.

Regarding HRLC, the enrichment ratio was no more than 0.25.

As to KVQD, the enrichment ratio is no more than 0.25.

Consider ECGG, for which the enrichment ratio was no more than 0.25.

For NFEL, the enrichment ratio was no more than 0.25.

Regarding HNHP, the enrichment ratio is no more than 0.25.

As for SLQH, the enrichment ratio worked out at 2.31.

For KQIA, the enrichment ratio was no more than 0.25.

NDKE: the enrichment ratio was no more than 0.25.

Take MSYY: the enrichment ratio is 4.19.

For the variant VSSM, the enrichment ratio was 4.97.

As for VHMR, the enrichment ratio was no more than 0.25.

Take WMKF: the enrichment ratio was no more than 0.25.

On to VGTK, for which the enrichment ratio was no more than 0.25.

As for FVPR, the enrichment ratio was no more than 0.25.

Take STPH: the enrichment ratio was no more than 0.25.

Regarding YLMP, the enrichment ratio was no more than 0.25.

With NCIF, the enrichment ratio was no more than 0.25.

For KGTY, the enrichment ratio is no more than 0.25.

Consider TLQS, for which the enrichment ratio is 1.85.

For the variant WELG, the enrichment ratio stood at 1.25.

SDHY: the enrichment ratio is no more than 0.25.

Consider EAGF, for which the enrichment ratio is no more than 0.25.

Consider GDLE, for which the enrichment ratio was no more than 0.25.

Turning to EMSD, the enrichment ratio was no more than 0.25.

As for NVRA, the enrichment ratio is no more than 0.25.

On to SDHP, for which the enrichment ratio was no more than 0.25.

On to SNKM, for which the enrichment ratio was no more than 0.25.

For AFFR, the enrichment ratio was no more than 0.25.

Consider HVMS, for which the enrichment ratio was no more than 0.25.

LQIY: the enrichment ratio is no more than 0.25.

Turning to KQGF, the enrichment ratio was no more than 0.25.

For NDCY, the enrichment ratio is no more than 0.25.

On to QRHP, for which the enrichment ratio is no more than 0.25.

On to FMDD, for which the enrichment ratio is no more than 0.25.

On to RMKV, for which the enrichment ratio is no more than 0.25.

Take QMHC: the enrichment ratio is no more than 0.25.

In the case of IHWR, the enrichment ratio is no more than 0.25.

As to PNHL, the enrichment ratio is no more than 0.25.

With MLFP, the enrichment ratio was no more than 0.25.

As to YDDT, the enrichment ratio is no more than 0.25.

Take EFPK: the enrichment ratio is no more than 0.25.

For the variant GQFE, the enrichment ratio was no more than 0.25.

On to HLAF, for which the enrichment ratio was no more than 0.25.

On to IQEI, for which the enrichment ratio was no more than 0.25.

As to LQFE, the enrichment ratio is no more than 0.25.

Regarding WLRT, the enrichment ratio is no more than 0.25.

Consider NFDE, for which the enrichment ratio is no more than 0.25.

As for LTLE, the enrichment ratio was no more than 0.25.

As for ELVF, the enrichment ratio was no more than 0.25.

For TGSA, the enrichment ratio was 6.87.

For the variant APFY, the enrichment ratio was no more than 0.25.

With NWTL, the enrichment ratio was no more than 0.25.

For YSKF, the enrichment ratio is no more than 0.25.

For the variant TLNM, the enrichment ratio worked out at 1.47.

In the case of VHCQ, the enrichment ratio is no more than 0.25.

With GGGP, the enrichment ratio was no more than 0.25.

As for NYHK, the enrichment ratio is no more than 0.25.

Take MKSY: the enrichment ratio was no more than 0.25.

In the case of WTCI, the enrichment ratio is no more than 0.25.

With RPKM, the enrichment ratio is no more than 0.25.

For the variant VPKW, the enrichment ratio is no more than 0.25.

In the case of NCSL, the enrichment ratio was no more than 0.25.

Turning to TPAN, the enrichment ratio is no more than 0.25.

Consider MANG, for which the enrichment ratio is no more than 0.25.

As for DHPT, the enrichment ratio is no more than 0.25.

For the variant ADLD, the enrichment ratio was no more than 0.25.

Take RGVI: the enrichment ratio was no more than 0.25.

On to AWKI, for which the enrichment ratio was no more than 0.25.

As to IGER, the enrichment ratio was no more than 0.25.

As for VTGD, the enrichment ratio is no more than 0.25.

In the case of NWGK, the enrichment ratio is no more than 0.25.

Take WSKM: the enrichment ratio was no more than 0.25.

Turning to LQAS, the enrichment ratio was no more than 0.25.

For KHTP, the enrichment ratio is no more than 0.25.

For the variant DYWD, the enrichment ratio was no more than 0.25.

Regarding QKFM, the enrichment ratio is no more than 0.25.

In the case of RTYQ, the enrichment ratio is no more than 0.25.

PIRW: the enrichment ratio is no more than 0.25.

In the case of LYKH, the enrichment ratio was no more than 0.25.

In the case of RSCA, the enrichment ratio is no more than 0.25.

On to DVIR, for which the enrichment ratio was no more than 0.25.

With EYSP, the enrichment ratio is no more than 0.25.

As to RVCK, the enrichment ratio was no more than 0.25.

As to DRDS, the enrichment ratio was no more than 0.25.

For KLAF, the enrichment ratio is no more than 0.25.

As for AGWQ, the enrichment ratio was no more than 0.25.

As for QEDK, the enrichment ratio is no more than 0.25.

In the case of TWIK, the enrichment ratio is no more than 0.25.

On to LADN, for which the enrichment ratio is no more than 0.25.

Consider LHHY, for which the enrichment ratio is no more than 0.25.

As to WFLD, the enrichment ratio was no more than 0.25.

For the variant TEIF, the enrichment ratio came to 9.64.

For the variant SDMK, the enrichment ratio was no more than 0.25.

Take TTLV: the enrichment ratio was 17.9.

As to KDYP, the enrichment ratio is no more than 0.25.

TIPQ: the enrichment ratio was no more than 0.25.

On to ARCP, for which the enrichment ratio was no more than 0.25.

Regarding YYSF, the enrichment ratio was no more than 0.25.

Turning to RELC, the enrichment ratio was no more than 0.25.

For the variant NDRR, the enrichment ratio is no more than 0.25.

For the variant SLGW, the enrichment ratio is 3.15.

Consider IIKP, for which the enrichment ratio was no more than 0.25.

Turning to KNGA, the enrichment ratio is no more than 0.25.

As for MFPL, the enrichment ratio is no more than 0.25.

With KELP, the enrichment ratio was no more than 0.25.

In the case of NSTG, the enrichment ratio was no more than 0.25.

For the variant VEVR, the enrichment ratio is no more than 0.25.

As to NYVN, the enrichment ratio was no more than 0.25.

On to MGGD, for which the enrichment ratio is no more than 0.25.

As for RTRQ, the enrichment ratio was no more than 0.25.

Consider VLTN, for which the enrichment ratio is no more than 0.25.

Take FRAK: the enrichment ratio was no more than 0.25.

For the variant TWHW, the enrichment ratio was no more than 0.25.

With PPPC, the enrichment ratio was no more than 0.25.

LNYE: the enrichment ratio is no more than 0.25.

FSPD: the enrichment ratio is no more than 0.25.

With WRHF, the enrichment ratio was no more than 0.25.

Turning to SPYG, the enrichment ratio is no more than 0.25.

On to YMIM, for which the enrichment ratio is no more than 0.25.

Take RCEV: the enrichment ratio was no more than 0.25.

Turning to DISV, the enrichment ratio is no more than 0.25.

For the variant SDYF, the enrichment ratio was no more than 0.25.

On to SMRR, for which the enrichment ratio is no more than 0.25.

For the variant VHLV, the enrichment ratio was no more than 0.25.

In the case of YCFR, the enrichment ratio was no more than 0.25.

In the case of MVYC, the enrichment ratio is no more than 0.25.

Turning to FEDM, the enrichment ratio is no more than 0.25.

Turning to RLFW, the enrichment ratio is no more than 0.25.

In the case of LCGG, the enrichment ratio was no more than 0.25.

On to LDTT, for which the enrichment ratio is no more than 0.25.
